45 compounds from the supplement of paper PMC4723716 can be followed below.

“And” between values parts separate entries of the source, which are not always exact repeats. Equal entries are not always repeated. ± gives the uncertainty stated by the source. Over roughly 9,900 compounds, “viability index relative to DMSO control” has its median near 1; the lowest 2% begin near 0.85. Some of the results follow.

The assay has as its system Plasmodium falciparum NF54 stage V gametocytes. The assay can be described thus: viability index relative to DMSO control (fraction); higher = less gametocyte killing. Conditions: 2.5 µM, library set: Broad Institute DOS, incubation time: 72 h. The method, boiled down:
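P. falciparum NF54 stage V gametocytes in serum-free screening medium (0.75% gametocytemia, 1.25% hematocrit, 10 µl) were incubated with compound at 2.5 µM in 1,536-well plates for 72 hr at 37°C under low oxygen. Then 3 µl of 2.5 µM MitoTracker Red CMXRos plus 0.13% saponin was added for one to two hours. One field per well was imaged, 20–70 µm2 red particles were counted, and the viability index was the count divided by the plate mean of DMSO wells.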
`OC[C@@H]1[C@H](c2ccc(C#Cc3ccccc3F)cc2)[C@H]2CN(CC3CCOCC3)CCCCN12` yielded a viability index of 0.971 ± 0.014.

For the compound `CO[C@H](CN(C)S(=O)(=O)c1ccc(C)cc1)[C@@H](C)CN([C@@H](C)CO)S(=O)(=O)c1cccc(Cl)c1`, the viability index was 1.03 ± 0.042.

In turn, `Cc1noc(C)c1NC(=O)N1C[C@@H](O)COC[C@H]2O[C@H](CC(=O)N[C@H]3CCN(Cc4ccccc4)C3)CC[C@@H]21` registered a viability index of 1.03 ± 0.011.

Take `O=C(Cc1cccnc1)N1CC(=O)N2[C@H](CO)[C@H](c3ccc(C#CC4CCCCC4)cc3)[C@H]2C1`: the viability index worked out at 0.801 ± 0.073.

`C[C@@H]1CN([C@H](C)CO)C(=O)c2cccc(NC(=O)C3CCOCC3)c2O[C@H]1CN(C)C(=O)Nc1cccc2ccccc12` gave a viability index of 0.974 ± 0.032.

For the compound `Cc1ccc(S(=O)(=O)N[C@H]2CC[C@@H](CC(=O)NCc3ccncn3)O[C@H]2CO)cc1`, the viability index is 0.946 ± 0.061.

Compound `COCC(=O)N1[C@@H](CO)[C@@H]2c3ccccc3N(C)C[C@@H]21` yielded a viability index of 1.02 ± 0.027.

For the compound `COc1cccc(NC(=O)N2[C@@H]3CNC[C@H]2[C@@H]3c2ccc(-c3ccncc3)cc2)c1`, the viability index amounted to 1.05 ± 0.024.

In turn, `CCS(=O)(=O)Nc1ccc2c(c1)C(=O)N(C)C[C@H](OC)[C@H](C)CN(CC1CCCCC1)[C@@H](C)CO2` yielded a viability index of 1.007 ± 0.008.

In turn, `C/C=C/c1ccc([C@H]2[C@@H](CO)N3CCCCN(C(=O)c4ccc(F)cc4)C[C@@H]23)cc1` had a viability index of 1.09 ± 0.11.

Consider `COCc1cn(CC[C@H]2CC[C@@H](NC(=O)Nc3c(C)noc3C)[C@@H](CO)O2)nn1`, for which the viability index was determined as 0.947 ± 0.11.

Regarding `C[C@H](CO)N1C[C@H](C)[C@@H](CN(C)Cc2ccc(F)cc2)Oc2cc(C#CC(C)(C)O)ccc2S1(=O)=O`, the viability index was found to be 0.92 ± 0.078.

`O=C(c1ccccc1F)N1C[C@H]2[C@@H](c3ccccc31)[C@H](CO)N2C(=O)Nc1ccccc1` yielded a viability index of 1.09 ± 0.11.

For `COC(=O)[C@@H]1[C@@H](CO)[C@@H]2Cn3c(ccc(-c4cncnc4)c3=O)[C@@H]2N1CCC(F)(F)F`, the viability index came out at 0.964 ± 0.049.

As to `O=C(C[C@@H]1CC[C@@H]2[C@H](COC[C@H](O)CN2C(=O)c2ccc(F)cc2)O1)N1CCCCC1`, the viability index was found to be 1.03 ± 0.045.

`C[C@@H]1CCCCO[C@H](CN(C)CC2CC2)[C@H](C)CN([C@@H](C)CO)C(=O)c2cc(NC(=O)c3ccccc3)ccc2O1`: the viability index worked out at 1.05 ± 0.044.

As for `O=C(Nc1ccc(F)cc1)N1[C@H](CO)[C@@H]2c3ccccc3NC[C@@H]21`, the viability index turned out to be 1.01 ± 0.14.

`N#C[C@@H]1[C@@H](c2ccc(-c3cccc(F)c3)cc2)[C@H](CO)N1c1nc(-c2ccccc2)cs1`: the viability index was found to be 1.11 ± 0.035.

As to `C[C@@H]1CN([C@H](C)CO)C(=O)Cc2cc(NC(=O)Nc3ccc(F)cc3)ccc2O[C@@H]1CN(C)S(C)(=O)=O`, the viability index was found to be 1.04 ± 0.041.

Compound `CNC[C@@H]1OCCCC[C@@H](C)Oc2ccc(NS(=O)(=O)c3ccc(F)cc3)cc2C(=O)N([C@@H](C)CO)C[C@H]1C` yielded a viability index of 1.1 ± 0.013.

`CCC(=O)N[C@@H]1CC[C@H](CC(=O)NCc2ccccc2F)O[C@H]1CO` displayed a viability index of 1.12 ± 0.032.

The compound `COc1cccc(S(=O)(=O)N(C)C[C@H]2Oc3cc(Br)ccc3S(=O)(=O)N([C@@H](C)CO)C[C@H]2C)c1` showed a viability index of 0.978 ± 0.026.

As for `COc1ccc([C@H]2C/C=C\C[C@@H](c3ccc4c(c3)OCO4)NC(=O)CCC(=O)N2)c(OC)c1`, the viability index was determined as 1.03 ± 0.015.

Take `CCS(=O)(=O)NCC[C@H]1CC[C@H](NC(=O)Nc2cc(Cl)cc(Cl)c2)[C@@H](CO)O1`: the viability index came out at 1.147 ± 0.0024.

In the case of `O=S(=O)(c1ccc(F)cc1)N1C[C@@H]2N[C@H](C1)[C@@H]2c1ccc(/C=C/c2ccccc2)cc1`, the viability index stood at 0.78 ± 0.029.

With `C[C@H](CO)N1C[C@H](C)[C@@H](CN(C)C(=O)c2ccncc2)OCCCC[C@H](C)Oc2ccc(NC(=O)CCC(F)(F)F)cc2C1=O`, the viability index came out at 1.08 ± 0.041.

Turning to `COc1ccc2c3c([nH]c2c1)[C@H](CO)N(Cc1nccs1)C[C@]31CCN(CC1)C(=O)C1CCCCC1`, the viability index stood at 0.983 ± 0.095.

Regarding `C[C@@H]1CN([C@H](C)CO)C(=O)CCCn2cc(nn2)CO[C@@H]1CN(C)C(=O)CCC(F)(F)F`, the viability index is 1.06 ± 0.031.

In turn, `COc1ccc2c3c([C@H](CO)N(CC4CCCC4)C[C@]33CN(C3)C(=O)Nc3ccccc3)n(C)c2c1` returned a viability index of 1.11 ± 0.062.

Take `NCC[C@H]1CC[C@@H](NS(=O)(=O)c2ccc(Cl)cc2)[C@@H](CO)O1`: the viability index is 1.11 and 1.16.

With `CO[C@@H]1CN(C)C(=O)c2cc(NC(=O)Nc3c(C)noc3C)ccc2OC[C@H](C)NC[C@@H]1C`, the viability index was found to be 1.03 ± 0.053.

Regarding `O=C(C[C@H]1C=C[C@@H](NS(=O)(=O)c2ccccc2)[C@@H](CO)O1)NCCN1CCCCC1`, the viability index is 1.12 ± 0.12.

For the compound `CC(C)NC(=O)Nc1ccc2c(c1)C(=O)N([C@H](C)CO)C[C@H](C)[C@@H](CN(C)C(=O)C1CCCCC1)OCCCC[C@@H](C)O2`, the viability index was 1.049 ± 0.0083.

Regarding `O=C(Nc1ccc(C(F)(F)F)cc1)Nc1ccc2c(c1)[C@H]1C[C@@H](CC(=O)N3CCc4ccccc4C3)O[C@@H](CO)[C@H]1O2`, the viability index stood at 1.03 ± 0.058.

On to `CO[C@H]1CN(C)C(=O)c2ccc(NC(=O)C3CCC3)cc2OC[C@H](C)N(Cc2ccccn2)C[C@@H]1C`, for which the viability index was 1.04 and 1.1.

The compound `COc1cccc(S(=O)(=O)N(C)C[C@H]2OCc3ccccc3-c3c(n(C)c4ccccc34)C(=O)N([C@H](C)CO)C[C@H]2C)c1` came in with a viability index of 0.952 ± 0.034.

For the compound `CN1C(=O)c2cc(NC(=O)Nc3ccccc3Cl)ccc2OC[C@H]2O[C@H](CC(=O)O)CC[C@@H]21`, the viability index is 0.98 ± 0.064.

With `CO[C@@H]1CN(C)C(=O)c2ccc(NC(=O)NC(C)C)cc2OC[C@H](C)N(Cc2ccc(-c3ccccn3)cc2)C[C@H]1C`, the viability index is 1.09 ± 0.021.

The compound `C[C@@H]1CN([C@@H](C)CO)C(=O)c2cc(NC(=O)Nc3ccc4c(c3)OCO4)ccc2O[C@@H](C)CCCCO[C@H]1CN(C)S(=O)(=O)c1ccccc1` gave a viability index of 0.99 ± 0.042.

In turn, `C[C@H](NC(=O)C[C@@H]1CC[C@H]2[C@@H](COC[C@@H](O)CN2C(=O)Nc2cccc(Cl)c2)O1)c1ccccc1` showed a viability index of 1 ± 0.064.

For the compound `CCC(=O)N1[C@H](CO)[C@H](c2ccc(C3=CCCC3)cc2)C12CN(C(=O)COC)C2`, the viability index is 1.12 ± 0.033.

The compound `CNC[C@@H]1OCCCC[C@@H](C)Oc2ccc(N)cc2C(=O)N([C@H](C)CO)C[C@H]1C` showed a viability index of 1.11 ± 0.19.

`CCC(=O)N1CC(=O)N2[C@H](CO)[C@@H](c3ccc(-c4ccc(C#N)cc4)cc3)[C@@H]2C1` gave a viability index of 0.946 ± 0.014.

As for `COc1ccccc1NC(=O)N1C[C@@H](O)COC[C@@H]2O[C@H](CC(=O)NCCc3ccncc3)CC[C@H]21`, the viability index turned out to be 1.06 ± 0.022.

As for `COCC(=O)NC[C@H]1[C@H](c2ccccc2)[C@H](CO)N1C(=O)c1ccccc1`, the viability index turned out to be 1.1 ± 0.017.
